# Assay results as given in the supplement of paper PMC3334620.
# In all, about 33,000 sequences were measured (“E-score (-0.5 to 0.5)”: median about -0.041, highest 2% from about 0.37 on). The list shows a part of the results.
# Target: T1, Ecm22 (UniProt Q05958)
# T1 sequence: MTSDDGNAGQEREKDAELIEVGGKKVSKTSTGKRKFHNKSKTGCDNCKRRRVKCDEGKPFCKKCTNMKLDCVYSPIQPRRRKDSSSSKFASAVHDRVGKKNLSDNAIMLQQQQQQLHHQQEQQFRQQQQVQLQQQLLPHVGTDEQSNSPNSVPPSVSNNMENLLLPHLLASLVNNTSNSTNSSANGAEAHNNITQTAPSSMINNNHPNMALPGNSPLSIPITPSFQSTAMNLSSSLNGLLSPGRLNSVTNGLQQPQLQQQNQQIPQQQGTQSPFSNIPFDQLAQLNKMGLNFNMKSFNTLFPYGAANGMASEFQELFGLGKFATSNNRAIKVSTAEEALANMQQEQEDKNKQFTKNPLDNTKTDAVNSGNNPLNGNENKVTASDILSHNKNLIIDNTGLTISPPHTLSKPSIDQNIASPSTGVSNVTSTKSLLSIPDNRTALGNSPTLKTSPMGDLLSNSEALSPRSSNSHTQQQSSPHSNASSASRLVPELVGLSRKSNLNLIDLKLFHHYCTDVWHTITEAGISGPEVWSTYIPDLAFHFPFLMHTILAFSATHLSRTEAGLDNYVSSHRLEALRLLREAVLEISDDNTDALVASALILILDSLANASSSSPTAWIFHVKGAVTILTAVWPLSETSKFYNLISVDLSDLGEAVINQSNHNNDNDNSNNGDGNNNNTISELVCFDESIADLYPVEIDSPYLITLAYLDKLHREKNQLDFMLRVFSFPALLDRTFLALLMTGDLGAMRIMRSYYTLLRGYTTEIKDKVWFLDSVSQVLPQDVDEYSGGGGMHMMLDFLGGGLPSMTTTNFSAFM
# Test: PBM E-score (8-mer binding enrichment) (E-score (-0.5 to 0.5)); higher = stronger / more preferred TF binding; most listed sequences are background and not binding sites
# Settings: protein concentration: 200 nM; construct: GST-full length
# In short: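 Detection of bound protein used fluorescent anti-GST, with scans normalised by masliner. The proteins were GST-tagged yeast transcription factors applied at about 100-200 nM to universal all-10-mer Agilent arrays made double-stranded by primer extension. Each ungapped eight-base word, pooled with its reverse complement, was scored with an E-score from the Universal PBM Analysis Suite.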
row,Sequence,PBM E-score
1,ATCGATGC,0.114
2,ATTGCATA,-0.0382
3,ATGATGCA,0.118
4,CCGCAGAG,-0.28
5,AACACGAG,0.234
6,ACTGATAT,0.0513
7,AGCTAACC,-0.0463
8,AAGCATGG,-0.307
9,ACACAAAT,0.135
10,CAACACTG,-0.03
11,CGCTACCC,-0.132
12,AAACTGCC,0.167
13,CGGCGATA,0.134
14,AGTACAAA,0.0199
15,CGTTCAGA,0.325
16,CGATAACA,0.0212
17,ATATAGCA,0.0374
18,GCTACACC,-0.189
19,ACACGCGG,0.05
20,CAAACCAA,0.0423
21,ACATGTAG,-0.112
22,GCCTGGAA,-0.251
23,GATCGGAC,0.0968
24,AGGTGGTC,-0.226
25,ATATGCAC,0.117

row,Sequence,PBM E-score
1,GTTACCCA,-0.00473
2,AAGTATCA,-0.115
3,ATCGTTGG,-0.0634
4,AAGATTAC,-0.063
5,GCGATAGA,0.168
6,ACCTGAGG,-0.194
7,GCTAATAC,0.0118
8,CTCTTCCA,-0.0818
9,ACATTATA,0.0164
10,CACGGGGA,-0.216
11,ATTACAAG,-0.158
12,ATAACGGG,-0.0278
13,TTGATAAA,0.0337
14,GACAAGTC,0.0831
15,ATGAATCA,-0.0528
16,CCGTATCA,0.354
17,AGGACGCC,-0.0366
18,CTAATCAA,-0.195
19,CGTCTAAC,-0.0542
20,ATTAAGGC,-0.102
21,CACTTTAC,0.132
22,CAGCGAAA,0.116
23,ATGGGGTG,-0.285
24,GGTTACGA,0.381
25,GTGGCCTA,-0.134

row,Sequence,PBM E-score
1,CCCTTTCA,-0.267
2,GGGTGGCA,-0.246
3,GGTCCCAC,0.0362
4,AGACGCGC,0.115
5,CCAGGCGG,-0.0617
6,CGACCCGA,0.198
7,AAGAATGT,-0.104
8,AGGTCGAA,-0.0216
9,CATACACG,0.142
10,CTGCAGGA,-0.245
11,AGGCGGTA,-0.00409
12,CGAGCTCA,0.266
13,CAGGTAAG,0.0463
14,CCATAAAC,0.105
15,GTAAGCGA,0.335
16,GAATGACA,-0.325
17,TCCGAGAA,0.265
18,AATAGCGT,0.0126
19,AAGGGCAG,-0.243
20,ACAGTAAA,0.0596
21,GGATTGGA,-0.12
22,CGACTTAC,0.184
23,GGCAATTA,-0.121
24,GAGTGACC,0.0319
25,CCCACCTA,-0.333

row,Sequence,PBM E-score
1,TATAACGA,0.278
2,ATCGGCTA,0.0697
3,ACGAGTGC,0.319
4,ACTAAACC,-0.00061
5,CAGAATCC,-0.0929
6,CCGTTGAA,-0.0547
7,ATGGTTAC,0.0519
8,CGCCACCA,-0.118
9,GCGTAACC,-0.0614
10,CATATAGC,0.0216
11,GTCGCCAC,0.0996
12,AAGTAAAC,0.294
13,ATGGATAC,0.038
14,AAACAAAG,-0.087
15,TCTGGTAA,0.0285
16,AGAACTCT,-0.12
17,GTACCGAC,0.252
18,CGTGGCAA,-0.281
19,TCATTTAA,-0.172
20,CGATAGTC,0.11
21,CCACACCA,-0.0379
22,GAGAGGCA,-0.0708
23,AGGCACCG,0.0118
24,ATACCGGC,0.0527
25,CTGTTTAA,-0.194

row,Sequence,PBM E-score
1,AATCGCAA,0.138
2,CACATCTG,-0.134
3,CTTTCGGC,-0.298
4,CCTTCGTA,0.453
5,TAAGCTAA,0.042
6,AGTACGGG,0.196
7,CTGGGCTC,-0.0303
8,CAATGGAC,0.0188
9,CTCGGGCC,-0.0196
10,ACTTAACT,-0.188
11,CGAGTCCA,0.0533
12,CCCAGACC,-0.144
13,GAGCGAAA,0.272
14,ACCACAAC,0.0744
15,ATTTAGCG,0.115
16,ACTGCATA,-0.00908
17,GACTGCTA,-0.279
18,CCGCCCAG,-0.034
19,CACACTAA,0.0795
20,GACCGTGC,-0.114
21,AAGGGTGA,-0.00576
22,CCGTCTCC,0.0539
23,CAGGAGCG,0.0742
24,GTGAGCGA,0.191
25,AGGCTGAA,-0.27

row,Sequence,PBM E-score
1,AGAGACCC,-0.19
2,ACTCGTAT,0.479
3,CAGGCATA,-0.129
4,GATAGCAC,-0.103
5,TCCCACCA,-0.122
6,GAAGCCGC,-0.0184
7,CGGAACAG,0.0524
8,GACTGCTC,-0.0681
9,AAGTACGA,0.448
10,GGGACGGA,-0.304
11,AGTGCTCC,-0.101
12,CGAACCAC,0.234
13,AACCGATT,0.233
14,ATGTATCA,0.0493
15,AAAATGTT,-0.103
16,GTAAATCA,0.153
17,GCTGGACC,-0.235
18,GAGTAATC,-0.0897
19,AGAATCAG,-0.158
20,CACGCATA,-0.102
21,AGAATCTG,-0.0251
22,GCTAAAAA,-0.0885
23,ACGTCTTA,0.116
24,CAGAGTAC,0.013
25,TAACTAAA,-0.149

row,Sequence,PBM E-score
1,GACGGGCC,-0.0352
2,CGCTGCCG,-0.159
3,CCGCGGCC,0.14
4,AGCGTTTA,0.168
5,TGCCTAAA,-0.0869
6,CAACGCTG,0.0478
7,ACTAGGTG,-0.192
8,GTCCGCTA,0.133
9,GAAGTGAA,-0.0727
10,AGCGCCCA,-0.338
11,GCGCCGCA,-0.0484
12,ATTAGGTA,0.045
13,GCGCATAA,0.0307
14,ATCTCCCA,-0.06
15,GCATAGGA,-0.0566
16,ATCTTACC,0.0694
17,AATATCCT,-0.0852
18,CCGGTCAG,-0.175
19,ATCCGGTC,0.0214
20,GTCCATAA,-0.283
21,GGGGCAAA,-0.189
22,GCCGAAGA,0.202
23,GCCTAGCA,-0.213
24,ACTGCAAC,-0.139
25,CATCTAAA,0.0553

row,Sequence,PBM E-score
1,GACATGTA,-0.0849
2,AAATGCCT,-0.168
3,GGGAGGAC,-0.128
4,ACCGAAGT,0.207
5,CGGACACA,-0.0508
6,ATGCCTCC,-0.151
7,CCCTCAGA,-0.169
8,GAACCCCC,-0.215
9,AATAGTCC,-0.216
10,AATTTCCT,-0.198
11,AGACTATA,0.151
12,CAGGATCC,-0.0144
13,CGCTTGCC,-0.041
14,CACGGACG,-0.0335
15,TTAGAGAA,-0.274
16,AGTAAACC,-0.0723
17,CAATTAAA,-0.018
18,CGACGTCA,0.104
19,CGTTTCAC,0.258
20,ACACGAAC,0.237
21,ATCGTCAT,0.0875
22,CACTAACA,-0.105
23,ACGACTGG,0.3
24,CCTGCCTC,0.142
25,CCCGTACG,0.402

row,Sequence,PBM E-score
1,CCTTCAAC,-0.276
2,CGGGGCAA,-0.0872
3,GCTTGGCC,-0.0878
4,CTAGAATC,0.00647
5,CTTTAAAG,-0.17
6,CATGTCAG,-0.35
7,CTGTCACC,-0.15
8,AGTTGACG,-0.0407
9,AGTGAGCC,-0.242
10,GATCAAAC,0.169
11,GAAGCCTA,-0.0357
12,TCAGCCCA,-0.182
13,CATCACTC,-0.0911
14,ACATATTA,0.0131
15,CTGGTAAG,-0.0136
16,AAGAGGAA,-0.0606
17,AGGTTTGA,-0.0857
18,GGCGGTAC,0.179
19,GATGCGCA,-0.147
